# Data reported in paper PMC10726135.
# This is one part of the list. At the low end of the ranking the order means little. Measured with an extract: partners may take part in the binding.
# Biological target: T1, HNF4alpha2 (COS-7 nuclear extract) (UniProt P41235)
# T1 sequence: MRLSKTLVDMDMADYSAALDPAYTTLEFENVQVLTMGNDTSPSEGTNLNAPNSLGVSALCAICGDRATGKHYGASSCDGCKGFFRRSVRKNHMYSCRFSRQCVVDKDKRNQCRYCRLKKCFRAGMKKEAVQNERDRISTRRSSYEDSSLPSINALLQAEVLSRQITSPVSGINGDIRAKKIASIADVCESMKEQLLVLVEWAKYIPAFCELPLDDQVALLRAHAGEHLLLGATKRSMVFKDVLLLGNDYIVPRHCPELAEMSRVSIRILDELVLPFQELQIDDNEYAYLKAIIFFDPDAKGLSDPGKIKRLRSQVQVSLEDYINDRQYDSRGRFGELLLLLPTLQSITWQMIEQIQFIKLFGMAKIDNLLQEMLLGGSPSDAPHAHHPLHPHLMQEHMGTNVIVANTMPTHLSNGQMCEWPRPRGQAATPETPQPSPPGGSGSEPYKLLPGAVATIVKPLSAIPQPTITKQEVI
# Assay: protein-binding microarray
# Conditions: COS-7 nuclear extract on double-stranded Agilent 4x180k PBM; binding buffer, salt, pH and temperature not given; high values mean tight binding; double strand, one strand shown; sequences stand for … in …GCCTAGGGAGATTAGAGTATCGGTCGA
row,Sequence,binding signal (log2 normalized intensity)
1,ACTGCAACCTGATAAGATTTTAGAAGTCAC,-1.16
2,GTGTCAGAGAAGGAGCCAGAGCTTTGGGAA,-1.3
3,GGAAACTCCATTTCCTTCTAGCTCCCCAAT,3.53
4,CAGGATTACTATAGGTTCTACTCTCCCCAG,2.14
5,ACCAGACAAGATCAATCAATTTACCTCTGC,-1.27
6,TGGGAACTGCGGACATAGCTTGCCACAGCA,-1.21
7,TGCTTGTCTTGGTTGTAGAAGGCTTAAGAT,1.01
8,CCTCCCCCCTTGGCTACATGTTTGTCTTTC,2.57
9,CCCAGTGCTCTCTCCTGCATTCCTGTCCAC,0.573
10,CTCCACTCTCATAAAAGAGGCCAATTTCTT,0.664
11,TGAGACTTTCCTGTTGGGGAGCAAAGGTTA,5.31
12,ATAGTTTGACTTTCTCTCTTCCTATTCAGA,-1.05
13,TCTGCCATCTACTAAGTGCTTAGTATGTGC,1.11
14,AGGTGTTCTTTCCCTCCAGCCCACTTACCA,2.05
15,CATAATTGCAAAATCCTTAGCAAATAGAGA,-1.14
16,TTGGAAAAAAAAAAAAAAAAAAGAACACAG,-1.08
17,GCATGCCATTTTGCAATTGACAAATGGCTT,-0.987
18,TCTGGATGGCTGAGCTGTAAGGACATAAGC,-0.971
19,CTCCAGGGACTGAGGGAGGGAGGAGGGACT,-1.08
20,CTCCAAGGGTATAGGATAAGGAATGAAGCA,-0.684
21,ACTCCGGGGAGCAGGCAGAGGAACAGAGGG,-1.04
22,CTGTTCACATGCTAATTACGGGCAGAGCTG,-0.0137
23,TCTCAGTGGGTGGGAAAGGGTGCTCCAGGC,-1.02
24,TTCCTTATCTGGAATTCCTCCTCCTGTTTG,0.849
25,TGAAATTCAACAGAACTGTTTGAGGGTAAA,0.467

row,Sequence,binding signal (log2 normalized intensity)
1,GCCCAAGATAACCTCCCCTCTGACCAGAGA,1.94
2,GTACAGGCAGTGACTGGACCACGATCAGCC,-1.09
3,TGAAGGCAGGGCTTTTCCATTGACAGTCCA,-1
4,GGGAGTTGGGGTCCAAAGTCTTTGTTCCTA,3.82
5,CCTGGGGCCTTGGGCCACCTGAGACAGTTT,-1.03
6,TGATAAGCAGTGTGGACTTTTTCCTGAGGG,1.08
7,AATTCTTAAGCCAAAGTCCAAGTTGGTGAG,3.05
8,AGCACGATGAATAGGGACGTTCTACTTGTT,0.187
9,CAAACAATGAGAGGCAACATTCCCAGTTAT,-1.11
10,TCAAGTCATAACTGGATGGTGCCTATTTGT,0.992
11,TTTGGACCTGGCCTGCGGGGTCAGGCCGTG,1.95
12,TGCCATTTATCAGTGATTTCTCTTCCATCT,0.463
13,TGCAAGGTTCTCTCTTCTTCCCCTCCTTCA,2.15
14,TTGAGAAGCAGGAGCATGGGGGATGGGGCC,-1.16
15,CTCCCAGAGGTCGATCTGATCTTAAGTTGT,1.09
16,TCAAGACCGATTGTGTTTTAGGCAAACATT,0.894
17,ACTCAGGATACCTAAGCCCCATGCTGATAA,1.32
18,ACATTGCAAATCTCTTCTTCCTTTCTATCA,0.334
19,AAGGGGGGTGGGGAGGCAGGTGGCTACATG,-0.973
20,AACTGCAAGGAAATCTGGGAAATGTAGCTT,-0.9
21,ACTGAACCCAGGCATACTCAGTTATCAACC,-0.997
22,ATGGCCGCTCCGCGAGGTGAGCCATTGGCT,-1.1
23,GAGCAAAAAGGCCGTTCAAAGGCAGCCTTC,-1.21
24,CCCTATGTGTTTCTTCTGCTTCCCTAGGGA,-0.0765
25,TCCGGAGAACACGGAGTCCTTCTGGGGCTA,-1.11

row,Sequence,binding signal (log2 normalized intensity)
1,AGAGCATCTGAGTGTCAAAAACAATACCAG,-1.14
2,GGCGACATCAAAGCATTTGGAGATTGCCAC,-1.03
3,GCATTCCACCAAATCTTACCTAAGGAAGTT,-0.954
4,TTATCTTGGAACCTCAAGAGGAGAAGAATT,-0.919
5,AGATTGCTCAGAGGCACAGTCTGCTTTCAG,-1.18
6,TATCTCGTCACCTTTATCGAACCTATTGTT,1.33
7,CTTTGTTTACTTAACCTTTGATCATATGCA,5.18
8,TTGGCAATTACCCAACAGACTTTCCCCCTA,4.12
9,AAGCATGTGATCTACTCCCTGTTCTTACAC,-0.242
10,CTGTCTAATTTTGCACAGCCAGCCTGAGGC,-1.06
11,TCACACACACACACACACACACCCCACACA,1.75
12,CTGTACCCTATGCACCCCACAGTGCTGTTT,1.52
13,CTTGGTGCCTCTGAGCTAAGATAACCATCA,-1.23
14,TAGCTAAGCTTCACTGACATTCCAGCCACT,-1.27
15,AAACAGGGACAGATGTTTGGTTGAGCAAGC,-1.1
16,GGTGGGGCCGGGGTGGTGGTTACCGGCAGA,-0.0457
17,GATCGAAAGGACATTGTCCATCACCTGGCT,-1.14
18,GGTCAGACATGGCTGTATGTGACATGGACA,1.49
19,TCGGCTGCCTCTCCAAACAAATTGAGAAAG,-0.863
20,TAGAGGGTAAACAGCCTCTAAGCACGGCCA,-1.21
21,CCAAAGCTACACAGATAAGCCATTCGTAAC,-1.18
22,TGAATTTGGTACCTCCCCCCACACCATTAG,5.05
23,TTCTGGAGGTGAGAAGCCTGAAATGAGTTT,-0.773
24,ATAAACAGAAGCAATCACAAGGAATGCCCT,-1.1
25,CCCTGCCCTCAGGGAATCCTGCATTATCAG,-0.189

row,Sequence,binding signal (log2 normalized intensity)
1,AAGGGTGAAAAGATAGCTTGAGGCCAGCTC,-1.08
2,GCCGGAGGGGAGGTTATCTCGGGGCTGGCA,-1.16
3,AACCACCACTGGGCAATTGGTTTCCGCTAA,-1.15
4,AGAAGGCAGCCGATTAACACAAAAAGGCAG,-1.15
5,CTATGTCCCTGACTGTGTGGCTTGCCTCTC,-0.58
6,CCACTTTGAATCAGGAGAGCATCTGAGTGT,1.15
7,GCTGTAGTGTGTAAGTATGCTCACTGACCT,3.01
8,CTAAGAGATTTGAATATGTACATGGACTTT,6.19
9,GTGTGCTGAGAGTTGGAAAATGTCGTTTTC,0.716
10,CTTGGGTATCAGATAGTCCAATGTCCAGAA,3.75
11,TTATATCAGAGGAATGTCTGACCAACCTGT,0.0786
12,TGTGACCTTTGGAAGGTGGGGGAGGAGACA,3.03
13,ACTACTGCTTTAGGCCTCAAGACAAACAAT,-1.13
14,TGCTTGGCCTCTCCACTTGGGTATCAGATA,0.354
15,GAATAATCCCCTCCTGGACTTTGGTCTCAT,7.15
16,TCTGACCAGGCTGATTTAGCTATTTGACCT,4.02
17,GAGAGAATGACCCTTGCTTGACCCATTATG,2.36
18,ACCCGTGCTTGGAATGCTATTTGCATTGAC,1.11
19,CCCCTGGCCTCACCCTTGTCCCTGAGGCTG,1.89
20,AAGTCCACGTGAGAGGGTCGTGATCGATTG,1.76
21,CAGGAGATGTGTGAAGGACACAGAATGACT,-1.28
22,CACACTGCAGCAAAACTTTAGGACTTTGAA,3.31
23,TCCCCATTCCTAAGTTCCAAAGGCCATCCA,2.83
24,TAAACAACACAGAACTAGCCAGACCTGTTC,-1.15
25,GATCAAGCAGGTGACCTTCGATCACCTCAA,4.61

row,Sequence,binding signal (log2 normalized intensity)
1,GAGCAGTGGGAGGTGAGGAAAACGGAGACA,-1.11
2,TGCCTCCTAAGGCCTCCAGAAGGAATGCAG,-1.07
3,CCCCCAGTGCACCTTAATAAGCACATTCCT,0.681
4,AGGAGTACACACCATAAGAGGCTCTAGATC,-0.923
5,AGAGCAGTGGAAGACAAATGATAATACTTA,-1.08
6,GGCTGATTGGCAGGCATTCCACACTGCAGG,-1.14
7,CAAGGAGGCTGAAGAAGTTGCTCAGTGTTC,0.637
8,GCAGTTTTTGATCAAGGAGGACTTTGGAAT,6.4
9,ATGCATAGAAGTATGTCTGGGATTTGAAGG,-0.542
10,GTTACTGTGTTCCTTTTATCTTACATGCCT,1.29
11,TGCAGAGCTTGCTCTCACCAGCTTCTTCTC,-0.996
12,GGGGGAGGGGACTTCGCTGGAGGTGTTAAA,-0.864
13,TCTGGAATGTGGAGAATGGCAAGAGATAAG,0.129
14,CTTATCAGCAGATAAGGGCAGAGAGGCTGC,-1.1
15,AAAAGACCAAAAAGGCTAACTTACCCGCTT,-1.1
16,TGATGCCCTTTGGCCTTTCTAATTATTTAC,3.63
17,GAGAAGGGTGGGAATTGGGATAGCAAAGGG,-0.717
18,CAACTCCAAAGTCCAAAGTCCAGTCTTATC,8.27
19,AGCTCTGCAATAGAGCCACATTCTGAGACT,-1.09
20,TTCAAAGTTCAGTTTGATTACTTGGCACTT,1.01
21,AGTATGCCACTGGTTAGTTCCAAAGGACAA,1.43
22,TTCTCTAGATGTCCCAGTAGATAACTTCAA,0.2
23,GTACCTTGACCTTCTCTGTTAACCCTTTGC,3.76
24,CCTTGTGAGCAGGATTATAGTTTATCTACC,0.884
25,ATGGATTTGATAGAGTGATAGCATGGTTTA,0.713

row,Sequence,binding signal (log2 normalized intensity)
1,AAGGCAAAAGAGACAGGACTTTACAAAGTA,-1.25
2,TACACTGCCTCCTTCAAGGATTAGCAGATA,-1.15
3,AACCCTTGCACTGCTGGTTTTTGTCAAAGA,0.709
4,GCACCCCTGCCCCCATGTTGTTCAAGGGTC,4.54
5,TGCATAAGGACCTCCTGAGATAGGTATGAT,0.777
6,TCAGCTGGTCCTTCAAGTGTGACCCTGAAC,3.65
7,GAAAGAGCCCCTTTGTCCATTATCTCACTT,0.558
8,CTCCATTTCCTTCTAGCTCCCCAATAGACA,3.46
9,CAGACCAGTAACCTAAGTCAGGAAACTGAC,-1.08
10,AGACAACCTTTGGTCACTTGTAAGATACTG,2.43
11,AGGGTGTTGTGGAATGTGCTTGGACCTGCT,1.99
12,GCCTTTTATCCCTTTTGAGGCTGGAGGATC,0.747
13,TCACAATAGGGTTCAAACTCCTATGTGAAT,1.39
14,ACAAACCTTATCTCTCAAGGTTCCCAGCTA,-1.18
15,TCCAAATCTAAGATATATCACCTGCCAGCT,-1.1
16,AGAATGGAGAAAACAACATTCCTTGTGTTT,1.09
17,TACTTAGTGGCTCCTAGAATTATCCCACCC,2.63
18,TCAGAGGCTGATTTCTCAGGAAGTGCTTGT,0.636
19,TCCATCATTTTTCTCTCTTGGACTCTTGGA,4.26
20,CATTTTTCTCTCTTGGACTCTTGGACTCCC,6.63
